Laboratory results from PubChem BioAssay AID1508623 (National Center for Advancing Translational Sciences (NCATS), 2021).
The campaign covered roughly 48,000 compounds. About 450 (0.94%) were called active. Inconclusive results, whose numbers are uncertain, are shown with a selection of clear calls. The call rests on the fitted dose curve; in most records, active means well fitted inhibition curve with a large enough effect; inconclusive means small, poorly fitted or top-dose-only effect; inactive means no such curve, though single readings can be large or run the other way. Where the call is inconclusive, the potency comes from a doubtful curve fit.

Assay: Primary qHTS for Identification of Small Molecule Inhibitors of Huntingtin Promoter Activity; further: nearly all actives have a fitted effect of over 50% in size
Details: HEK293 HTT promoter firefly luciferase reporter (activity 0% = vehicle and -100% = no light), 24 h; activity change, negative = inhibition: at 57.5 µM (top of the series)
How it was run: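 Firefly luciferase signal from promoter-reporter HEK293 cells was scaled between vehicle (0%) and zero RLU (-100%). Compounds were tested at final concentrations of up to 57.5 uM over 24 h at 37 degrees C. PTC124 at 50 uM final served as control inhibitor.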
Potency means the concentration at half of the fitted maximal effect; tags describe the fitted curve by direction and shape.

Potency, inconclusive:
COc1cccc2[nH]c(C(=O)NCc3ccc4c(c3)CCN4C(=O)c3ccc(F)cc3)cc12 39.8 µM [inhibitor, single point]
COc1ccc(CNC(=O)c2ccc(-c3nc(CS(=O)c4ccc(C)cc4)c(C)o3)cc2)cc1 (stereo unspecified) 3.16 µM [inhibitor, partial curve, poor fit]
COc1ccccc1N1CCN(C(=O)c2ccc3c(c2)CCN3S(=O)(=O)c2ccccc2)CC1 35.5 µM [inhibitor, partial curve, poor fit]
O=C(CC(c1cccs1)N1Cc2ccccc2C1=O)Nc1cccc(F)c1 (stereo unspecified) 35.5 µM [inhibitor, partial curve, poor fit]
O=C(NCCc1ccc(F)cc1)C(=O)NCC(c1cccs1)S(=O)(=O)c1ccccc1 (stereo unspecified) 25.1 µM [inhibitor, partial curve]
COc1ccc(Cl)cc1S(=O)(=O)N1CCN(C(=O)c2cc(-c3ccc(Br)cc3)n[nH]2)CC1 25.1 µM [inhibitor, single point]
Cc1cccc(C(=O)Nc2ccc(S(=O)(=O)N3CCCCC3c3cccnc3)cc2)c1 (stereo unspecified) 39.8 µM [inhibitor, single point]
COc1cc2c(cc1OC)CN(C(=O)[C@H](C)N[C@@H](CCc1ccccc1)C(=O)O)[C@H](C(=O)O)C2 39.8 µM [inhibitor, single point]
CCCCCn1c(CCCNC(=O)c2ccccc2OC)nc2ccccc21 39.8 µM [inhibitor, single point]
CCOc1ccc(NC(=O)CC2C(=O)N(c3ccc(OC)cc3)C(=O)N2CCC2=CCCCC2)cc1 (stereo unspecified) 39.8 µM [inhibitor, single point]
COc1cccc(N2CCN(C(=O)c3ccc4nc(N5CCC(C)CC5)sc4c3)CC2)c1 0.631 µM [inhibitor, full curve, poor fit]
COCC(=O)NCC=Cc1ccc2ncnc(Nc3ccc(Oc4ccc(C)nc4)c(C)c3)c2c1 27.3 µM [inhibitor, partial curve, poor fit]
O=C(CCn1cnc2onc(-c3ccc(F)cc3)c2c1=O)Nc1cccc(C(F)(F)F)c1 28.2 µM [inhibitor, single point]
CCC(C(=O)NCCc1ccc(OC)c(OC)c1OC)n1nc(C)c2sc3ccccc3c2c1=O (stereo unspecified) 39.8 µM [inhibitor, partial curve, poor fit]
Cc1ccc(CNC(=O)C2CCN(C(=O)N3CC(C)Oc4ccc(Cl)cc43)CC2)cc1 (stereo unspecified) 14.1 µM [inhibitor, partial curve]
Cc1ccc(C)c(N2CCN(CCCNC(=O)c3cnn(-c4cccc(Cl)c4)c3C3CCN(C(=O)OC(C)(C)C)CC3)CC2)c1 25.1 µM [inhibitor, single point]
COc1cccc(NC(=O)C(C)n2c(=O)cc(C(F)(F)F)c3c(C)nn(C)c32)c1 (stereo unspecified) 25.1 µM [inhibitor, partial curve]
CC(C)Oc1ccc(CNC(=O)C(C)n2ccc3cc(S(=O)(=O)N4CCCCCC4)ccc32)cc1 (stereo unspecified) 35.5 µM [inhibitor, partial curve, poor fit]
CCOc1ccccc1NC(=O)Cn1c(=O)nc(-c2ccccc2F)c2cc(Cl)ccc21 39.8 µM [inhibitor, single point]
Cn1c(SCc2ccc(F)cc2)nc2ccc(C(=O)NCc3cccc(Cl)c3)cc21 20 µM [inhibitor, partial curve, poor fit]
CCC(=O)N1CCCc2cc(S(=O)(=O)N3CCC(C(=O)NC4CCC(C)CC4)CC3)ccc21 (stereo unspecified) 35.5 µM [inhibitor, partial curve, poor fit]
CCc1ccccc1N(CC)C(=O)c1cc2c(s1)-c1ccccc1SC2 22.4 µM [inhibitor, single point]
Cc1cc([C@@H](C)Nc2ccccc2C(=O)O)c2nc(N3CCOCC3)cc(=O)n2c1 5.59 µM [inhibitor, full curve, poor fit]
O=C(CSc1nc2c([nH]c3ccccc32)c(=O)n1-c1ccccc1F)Nc1cccc(Cl)c1 31.6 µM [inhibitor, single point]
COc1ccc(C2C(C(=O)Nc3ccccc3)=C(C)Nc3nc(-c4ccc(Cl)cc4)nn32)cc1 (stereo unspecified) 39.8 µM [inhibitor, partial curve, poor fit]
CN(C)C(=O)c1ccc(S(=O)(=O)NCc2ccc(Cl)cc2)s1 35.5 µM [inhibitor, partial curve, poor fit]
CCc1ccccc1Nc1sc(C(=O)c2ccccc2)c(N)c1S(=O)(=O)c1ccccc1 28.2 µM [inhibitor, single point]
COC(=O)c1scc(-c2ccc(C)cc2)c1S(=O)(=O)N1CCN(c2cccc(Cl)c2)CC1 39.8 µM [inhibitor, single point]
Cc1ccc(S(=O)(=O)c2nc(-c3cccs3)oc2N2CCC(C)CC2)cc1 35.5 µM [inhibitor, single point]
O=C1CN(C(=O)c2ccc(S(=O)(=O)N3CCCC3)cc2)C(c2ccc(F)cc2)c2cc(Br)ccc2N1 (stereo unspecified) 28.2 µM [inhibitor, partial curve, poor fit]
CCC1CN(S(=O)(=O)c2cc(-c3cc(C)no3)ccc2OC)c2cc(Cl)ccc2O1 (stereo unspecified) 14.1 µM [inhibitor, partial curve, poor fit]
O=S(=O)(NCCc1csc2nc(-c3ccc(Cl)cc3)nn12)c1cccs1 28.2 µM [inhibitor, single point]
CCc1ccccc1NC(=O)CN(c1cc(C(F)(F)F)ccc1Cl)S(=O)(=O)c1ccccc1 39.8 µM [inhibitor, partial curve, poor fit]
COc1ccccc1Nc1cc(C(=O)NCCCN(C)C2CCCCC2)c2ccccc2n1 28.2 µM [inhibitor, single point]
Cc1ccc(NC(=O)N2CC=C(c3c[nH]c4ccccc34)CC2)cc1Cl 25.1 µM [inhibitor, single point]
Cc1ccc(NS(=O)(=O)c2ccc(-n3cccn3)cc2)c(Br)c1 39.8 µM [inhibitor, single point]
Cc1oc(-c2cccc(Cl)c2)nc1Cn1c(SCc2ccc(F)cc2)nc2cccnc21 28.2 µM [inhibitor, single point]
O=C(Cc1ccc(-c2ccccc2)cc1)NCCS(=O)(=O)N1CCN(c2ccccc2F)CC1 20 µM [inhibitor, partial curve, poor fit]
COc1cccc(NC(=O)C2CCCN(c3ncnc4onc(C)c34)C2)c1 (stereo unspecified) 28.2 µM [inhibitor, single point]
CCc1ccc(NC(=O)c2cc(=O)c3ccc(C)c(C)c3o2)cc1 10 µM [inhibitor, partial curve]
O=C(Nc1ccc(F)c(F)c1)c1cc(S(=O)(=O)NC2CCCC2)ccc1F 25.1 µM [inhibitor, partial curve, poor fit]
COc1cccc(C(=O)Nc2ccc3nc(SCCOc4ccccc4)sc3c2)c1 12.6 µM [inhibitor, partial curve, poor fit]
O=C(NCC(c1cccnc1)N1CCc2ccccc21)c1ccc(Cl)cc1 (stereo unspecified) 35.5 µM [inhibitor, partial curve, poor fit]
Cc1ccc(-n2ncc(C(=O)NCCN3CCC(Cc4ccccc4)CC3)c2C2CCN(C(=O)OC(C)(C)C)CC2)cc1 35.5 µM [inhibitor, single point]
CCCN1C(C(=O)c2ccccc2)=C(OC(=O)COc2ccc(C)cc2)c2ccccc2S1(=O)=O 39.8 µM [inhibitor, single point]
CCCSCCCNC(=O)Cn1c(-c2cccs2)cc2ccccc21 39.8 µM [inhibitor, single point]
O=C(Nc1c2c(nn1-c1ccc(Cl)cc1)CS(=O)(=O)C2)c1ccc(Br)cc1 11.2 µM [inhibitor, partial curve, poor fit]

Activity change, negative = inhibition, inactive:
O=C(CSc1cn(CCNC(=O)c2c(F)cccc2F)c2ccccc12)Nc1ccccc1F -7.65%
Cc1ccc([C@@H]2O[C@H](CO)[C@@H](O)[C@H](O)[C@@H]2O)cc1Cc1ccc(-c2ccc(F)cc2)s1 -15%
Cc1cccc(-n2ncc3c(NCCOCCO)ncnc32)c1 38.6%
CCCOc1ccc(C2C(=O)N(C3CCCCC3)CC(=O)N2C2CCCCC2)cc1OC (stereo unspecified) 6.77%
CCN(CCCNC(=O)Cn1ncc2c([nH]c3ccccc32)c1=O)c1cccc(C)c1 1.31%
O=C(COc1ccc(Cl)cc1)OCc1cc(=O)n2nc(C3CCCCC3)sc2n1 0.657%
CCc1ccc(S(=O)(=O)c2nnn3c2nc(N(CC)Cc2ccccc2)c2cc(Cl)ccc23)cc1 4.77%
CNC(=O)c1cc(COc2nnc(Nc3ccc(Cl)cc3)c3ccoc23)ccn1 -0.746%
Cc1cc(NS(=O)(=O)c2ccc(NC(=O)COc3cc(C)c(Br)cc3C(C)C)cc2)no1 -27%
